# Measurements: ChEMBL document CHEMBL1201862, “PubChem BioAssay data set” (2004)
#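 Grown in 96-well plates, cells were treated for 48 hours with each compound at five concentrations. Insufficient inhibition: endpoint recorded as highest concentration tested. Here, GI50 denotes the concentration required for 50% inhibition of growth.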 Active and inactive are the calls of the source. Cut-off read from the data, not from the text of the source: active = GI50 up to about 1.1 µM and inactive = higher.
# Tested on: NCI-H322M
# Experiment: NCI-60 cell line screen, 48 h
row,Structure (SMILES),GI50
1,O=[N+]([O-])c1ccc(-[n+]2ccc3ccccc3c2)c([N+](=O)[O-])c1,inactive: 12.9 µM
2,Nc1nc(SCCC/C=C/B(O)O)nc2c1ncn2C1OC(CO)C(O)C1O (stereo unspecified),inactive: > 243 µM
3,O=C1Nc2ccccc2/C1=N/Nc1ccc([N+](=O)[O-])cc1,inactive: 25.3 µM
4,CN(C)c1ccc(Cc2cc(C(C)(C)C)cc(C(C)(C)C)c2O)cc1,inactive: 19.5 µM
5,ON=C(CC(O)(C(F)(F)Cl)C(F)(F)Cl)CC(O)(C(F)(F)Cl)C(F)(F)Cl,inactive: 2.07 µM
6,COc1ccc(CC2C(=O)NC(C)C(=O)N(C)C3Cc4ccc(cc4)Oc4cc(ccc4O)CC(C(=O)NC(C)C(=O)NC(C)C(=O)N2C)N(C)C3=O)cc1 (stereo unspecified),active: 0.0175 µM
7,Cc1cc(C)c2c(=N)c3ccccc3n(CCCCCCn3c4ccccc4c(=N)c4c(C)cc(C)nc43)c2n1,inactive: 1.64 µM
8,c1ccc(N2CCN(CCN3CCc4c([nH]c5ccccc45)C3c3cccnc3)CC2)cc1 (stereo unspecified),inactive: > 100 µM
9,COc1ccc(C2C3CCc4ccccc4C3=NN2S(=O)(=O)c2cccc(C(=O)O)c2OC)cc1 (stereo unspecified),inactive: 32.4 µM
10,CCC(=O)C(C)C1=Nc2nnc(CCCCCCCc3nnc4n3C(=O)C(C(C)C(=O)CC)=N4)n2C1=O (stereo unspecified),inactive: > 100 µM
11,CC1(C2COC(=O)C2)SCCCS1 (stereo unspecified),inactive: > 100 µM
12,C=CC1(C)CC(=O)C2(O)C(C)(O1)C(OC(C)=O)C(O)C1C(C)(C)CCC(O)C12C (stereo unspecified),inactive: > 95.3 µM
13,COc1c(C)c2c(c(O)c1C/C=C(\C)CCC(=O)O)C(=O)OC2 [MYCOPHENOLIC ACID],inactive: 4.19 µM
14,COC(=O)C1=C(C(=O)OC)N(c2ccncc2)C(c2ccco2)=CC1c1ccccc1[N+](=O)[O-] (stereo unspecified),inactive: 8.79 µM
15,COc1ccc2nc3ccccc3c(NCCN(CCCl)CCCl)c2c1,active: 0.979 µM
16,C/C(=N\Nc1nc2ccccc2s1)c1ncccn1,active: 0.0376 µM
17,CC(=O)c1ccc(N2C(=O)C3c4[nH]c5ccccc5c4C4CCC(C(C)(C)C)CC4C3C2=O)cc1 (stereo unspecified),inactive: 24.6 µM
18,COC(=O)c1ccccc1/N=C/c1ccc(N(CCC#N)S(=O)(=O)c2ccccc2)cc1,inactive: > 100 µM
19,COc1nc(O)c(N)c(NC2OC(CO)C(O)C(O)C2O)n1 (stereo unspecified),inactive: > 100 µM
20,COc1ccc(/C=C2\C(=O)Nc3ccccc32)cc1OC,inactive: > 100 µM
21,O=[N+]([O-])c1ccc2occ3c2c1CCC3,inactive: > 100 µM
22,COc1ccc2nc3cc(Cl)ccc3c(Sc3ccccc3[N+](=O)[O-])c2c1,inactive: > 100 µM
23,CN(C)CCCNc1nnc(NCCCN(C)C)c2c(=O)c3sccc3[nH]c12,inactive: 8.91 µM

row,Structure (SMILES),GI50
1,CCOC(=O)Nc1ccc(S(=O)(=O)OC)cc1.CCOC(=O)Nc1ccc(S(=O)(=O)OC)cc1.NNC(=O)c1ccncc1,inactive: > 50 µM
2,CCOC1=C2C(C)(CCC3[C@@]4(C)C=CC(=O)C(C)(C)C4CC(O)[C@@]23C)C(c2ccoc2)C1=O (stereo partly specified),inactive: 16 µM
3,COC(=O)CC1C2CC3C(C2=O)C13 (stereo unspecified),inactive: > 100 µM
4,CCc1nc(N)nc(N)c1-c1ccc(Cl)c([N+](=O)[O-])c1,active: 0.767 µM
5,COCOC1/C=C/CCCCC(=O)C(C)C#CC1 (stereo unspecified),inactive: 12.2 µM
6,O=C1Cc2c([nH]c3c(Br)cccc23)-c2ccccc2N1,inactive: > 100 µM
7,O=C1N[C@@H]([C@H]2CC[C@H](Cl)CN2)C(=O)N[C@H]1[C@H]1CC[C@H](Cl)CN1,inactive: 5.92 µM
8,O=C1[C@@H](c2ccc(Cl)cc2)[C@H]2CC=C[C@H]2N1O,inactive: > 100 µM
9,COP(=O)(CC(=O)C1OC(OCc2ccccc2)C(OCc2ccccc2)C(OCc2ccccc2)C1OCc1ccccc1)OC (stereo unspecified),inactive: 23.4 µM
10,Cc1cc2c(cc1C)C(=O)C1(C2)Cc2c(ccc(C)c2C)C1=O (stereo unspecified),inactive: 65.2 µM
11,COc1ccc2nc(-c3ccc(OCc4ccccc4)cc3)ccc2c1,inactive: > 100 µM
12,O=C(Nc1ccccc1)N1CCNC1=S,inactive: > 100 µM
13,CN1CCN(c2c(Cl)cc(Cl)c3[nH]c4ccccc4c(=O)c23)CC1,inactive: 8.71 µM
14,CC1=CC(=O)CC(C)(C)C1/C=C/C(C)=C/C=C/C(C)=C/C=C/C=C(C)/C=C/C=C(C)/C=C/C1=C(C)CC(O)CC1(C)C (stereo unspecified),inactive: > 100 µM
15,Cc1cc(O)nc2cc3oc4ccccc4c3cc12,inactive: 47.4 µM
16,C#CC1/C(=C\C(=O)OC)CCCC1O (stereo unspecified),inactive: > 100 µM
17,COC(=O)CCC1=NOC(CC2CC(CCC(=O)OC)=NO2)C1 (stereo unspecified),inactive: > 100 µM
18,COc1ccc(C2=C(N)c3c(Cl)cccc3C2=O)cc1,inactive: > 100 µM
19,Cc1ccc(-c2c(C#N)c(-c3ccccc3)c(C#N)c(=O)n2NS(=O)(=O)c2ccc(C)cc2)cc1,inactive: 74.6 µM
20,COC(=O)CCC(=O)C(C#N)c1ccc(Cl)cc1Cl (stereo unspecified),inactive: > 100 µM
21,CCCCCCCC1(N=[N+]=[N-])C(=O)c2ccccc2N(C)C1=O (stereo unspecified),inactive: > 100 µM
22,Cc1ccc2c(c1)C(=O)c1ccc(C)nc1C2=O,inactive: 23 µM
23,Cc1ccc(C(=O)N/N=C(\N=N\c2cccc([N+](=O)[O-])c2)c2ccc(N(CCC#N)CCC#N)cc2C)cc1,inactive: 39.6 µM
